The supplement of paper PMC10126150
Sequences with one replicate were seen in a single cluster, so their values are uncertain.

Test system: ATP
Assay: switch fluorescence ratio, 500 uM ATP over buffer (Cy3 cluster intensity, sum of 5 cycles each) (fold (ratio)); higher = stronger signal-on switching upon ATP binding; sequences stand for … in TCGTCGGCAGCGTCAGATGTGTATAAGAGACAGTTTTTTTTTTTTTTTTTTTTTTTTT…TC
Conditions: aptamer strand: ATP DNA aptamer (quencher-CACCTGGGGGAGTATTGCGGAGGAAGG + anchor), 100 nM annealed; ATP concentration: 500 uM; one replicate
Method in brief: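 Imaging in selection buffer was followed by imaging after 15 min with 500 uM ATP at 22 °C, for Cy3-labelled switching-strand clusters annealed to 100 nM quencher-labelled ATP aptamer on a modified Illumina MiSeq flow-cell. Five of these buffer/ATP cycles ran, separated by NaOH stripping and re-annealing. The fluorescence ratio per cluster is summed target-cycle over summed buffer-cycle Cy3 intensity, averaged per switch-domain sequence; clusters outside 100-1000 RFU were removed.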
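Further: ATP exposure 15 min at 22 °C before imaging.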

Sequence	switch fluorescence ratio
TAATACAGCT	1.01
ATTTTATACC	1.01
TGCAAGGGTC	1.12
ATAGTCAATG	0.995
TCCACACGAT	1.05
AGTGCTGAGG	0.908
AGTCCGTTAG	0.979
TGGCGACCTT	1.08
AACTTTTCTG	1.04
AGCACGGTTT	1.01
GAGTGATACC	0.993
TCTGGCGGAG	0.996
AAATCTTTGG	0.954
TTCGTTGCCA	1.17
AGAATCGATG	0.953
TTCACACGAA	1.25
AATGATCCCC	1.06
GAACGGGCGA	1.06
TCAAGAAGCA	1.01
AGATCGACGT	0.957
CGTTTCGTCC	1.01
TCAGCGCACA	1.02
TTGGCCTTGC	1.11
AGCGTAAACG	0.956
GAGTAGCGCA	1.02

Sequence	switch fluorescence ratio
ACCGCGGGGC	1.4
GAAAACGAGT	0.969
TCATCAAAAT	1.11
ACATTTTTAA	1.03
ACGGTCCGTC	1
ACGTGACAA	1.23
ATATGTCACT	1
AGGACTAGGG	0.943
GCAGATCGAG	1.04
GAATGGACGG	1.03
TTTTTACGCG	1.05
GTTCTACTTG	1
ATTCCCGGCG	1.07
GTATGACGGA	1.08
TGTTGCCTAG	0.922
GTGTTTGTAG	1
GAGTTATAC	0.975
TGTAAAGGAC	1.04
GGGCGGATCC	0.958
CATAGCTACG	1.05
GTAATGTGAG	0.99
ATATGCGGTA	1.01
TTAGTGATG	1.01
CCGATCGGAC	1.11
GTTAGACATT	0.97

Sequence	switch fluorescence ratio
TAAACGTTGG	1.05
CCTTCGTTCG	3.36
CGCCGTCGGC	1.05
GCGGTCTAGC	0.968
AAGCGCGGCA	0.976
GAGAGGGCTA	0.951
CGCTACGAGG	1.15
CAGCTAAGGT	0.985
TGACCATCCA	0.998
GTTTGTTAAG	1.02
AATATGGTCT	1.04
AGGGACGTTG	1.03
AGTGGCTGTA	1.01
CGCTTTCAGT	0.998
TTTAACTACG	1.07
CAATGTGATG	1.03
ACCGGAATTT	1.18
CTCGAGTTAG	0.927
AATTTGACTT	0.957
TGGTTGTGTG	0.982
CGGAAGGCAC	1.08
CGCTTCCGGC	1.03
ACAGTCT	1.01
CAGTGAGGAT	0.985
AACGGCTTGT	0.986

Sequence	switch fluorescence ratio
TTTCGTCGCC	1.01
ACGCCGAATT	1.08
GTGCGAAGAG	0.981
ACTAATCTTG	1.04
GCGGAGGGTT	1.07
GGTAGCATGG	1.01
AATTGTGCAC	1.02
TCATTGAGCA	1.01
ATGGTTCGTC	1.03
TGGGCTAGCG	0.979
GTTGCGACAA	1.27
ACTGTTGGGT	0.992
ACCGAAACCC	1.24
CGGACTATGC	1.29
ATGGGGATAT	0.973
TGCGACCTGG	0.952
GGCGCCGGGT	1.04
ATGAGGATG	0.978
ATGGTAAAGG	0.991
TAGTAGCGGT	0.994
AAGGGCCAAC	1
ATGTTATATA	0.989
CATGGGCAC	1.02
AGCTACGAAG	0.998
GACAGTCTT	0.991

Sequence	switch fluorescence ratio
TACGGGCAAT	2.74
AACTTCAGT	1.03
AAAACGATGT	1.02
TAGCCTATCG	0.996
TTATGTGTGG	1.01
ATGATGGCTC	1
ATGATGGTAG	1.02
ACACGTCTCG	1.02
TAATTTACCC	1
TATCTAGTG	1
TCGGAGATGT	0.957
GCGCACAAGA	0.991
GAGTATAGTT	0.962
GATTAAGTGT	0.973
TTCTAATGAT	0.971
GTATTAACAC	1.02
GCTAAATTCA	1
AAACTCTACC	1.17
TATGCCGTAG	0.995
TTCTGAAGTG	0.978
CGAAAGAAT	1.03
GCCCTATAC	1.81
AGCTGAGTTG	1.03
ATCGAAGGG	1.01
CGGATTCATG	1.03

Sequence	switch fluorescence ratio
CTATGAGACG	1.06
GAACTTCTTC	1.04
GACATTACAT	1.14
TTCTGTAAGG	0.993
CTGGTTCATT	1.03
CCGTGTCTAG	1.01
AGCGGGCAAA	1.09
TGTCGGAACA	0.943
CATACCCTCG	1.02
ACATTTTAGT	0.996
TGCCCACCCC	1.25
ACCCTGTCCT	1.09
AATCGCTAGT	0.989
CTTTATGGAT	1.05
AACGCGTGCG	1.24
TGCCTGTAGG	0.98
GCAGGTATCC	1.05
CTAGGCACTG	1.06
GTTACCGATA	1.04
TTGCCAGTCA	0.991
TCGAAGTTAG	1.05
TGTCGAATTA	0.956
AATAGTATGC	0.998
TGTAGGGATC	1.1
AGGGAATTAT	1

Sequence	switch fluorescence ratio
CGGCTGCGAC	1.28
ACGGGAGCAC	1.2
CCGGAGCCGA	1.03
ACAGGGTGAG	1.04
ATGTCGCCCG	0.985
CCGGGTATAC	2.98
AAGAGAGCTT	1
ACTGGATTAA	0.994
GATGCGAAGC	1.08
CGGTTTATTA	1
ATCGCAAGTC	3.29
TTCTCGCAAG	2.56
GCTGGGGAAT	0.997
CTTTTTACGC	1.04
CTATTTCAAA	0.967
TAGTATGGCA	1.03
TTAAGGTAGT	0.978
GGGCACCGT	1.02
TAAGACGTC	0.99
TGCCAATTTT	1.06
ATACGGATGA	0.973
ACCTCGTACC	1.08
TATGGTGCAA	1.02
GACCAAGCCT	1.08
TCTTCAAATG	1.02

Sequence	switch fluorescence ratio
TCAGTTACCC	0.987
CGTTTTGGTA	0.999
TCTACACCGG	1.02
GGGTGCTCTG	0.987
AGTCCCCGGG	1.8
AAAGGAATGC	1.33
AAAGAGTCGC	1.01
CGGGGTGGCG	2.49
GCACGGGCTG	1.07
TCACTCTGTT	1.01
AAGCCTTAG	1.04
AGTAGGCGGA	0.993
CAATTATCTA	0.976
TCGGACATTT	1.04
CGCATCTGGT	1.02
AGTGGCCGCC	0.981
CTGTTCTCGT	0.954
CGGGAAGAAC	0.956
CAGTGCACCG	0.987
TCACGTTGG	1
GATACATTGA	1.04
GGTCTGGAAA	1.02
TAGGGATTAA	1.01
TATTTAAATG	1.03
CCTTTTGACC	1.13
